Laboratory results from PubChem BioAssay AID463173 (ICCB-Longwood Screening Facility, Harvard Medical School, 2010).
Screen size: about 52,000 compounds; about 1,700 (3.3%) were called active. No stated cut-off is given here; in the data, active means survival mostly below about 52% (no sharp cut-off); inactive means mostly above about 56%. The list shows a part of the results.

system: Wild type; assay: S. aureus survival, RN4220 and DeltatarO strains – OD600, teichoic acid synthesis inhibitors, primary screen (AID 463173); settings: S. aureus RN4220 wild type/DeltatarO growth, OD600, 18 h, hits give low values, screened at 18.75 µg/mL (by protocol)

SMILES	survival
CCOc1ccc(CC(=O)Nc2c(C(=O)c3ccccc3)oc3ccc(OC)cc23)cc1OCC	inactive: 74%
CCc1ccccc1NC(=O)Cn1c(=O)n(Cc2ccc(OC)cc2)c(=O)c2oc3ccccc3c21	inactive: 82%
CCn1c2ccccc2c2cc(CN3CCN(Cc4ccco4)CC3)ccc21	inactive: 104%
COc1ccc(NC(=O)C2CCCN(c3nnc(C)c4c(C)n(-c5ccccc5)nc34)C2)cc1Cl (stereo not drawn)	inactive: 124%
CCOC(=O)c1cccc(N2C(=O)C3C(C(=O)NC4CC4)C4(C)C=CC3(O4)C2C(=O)NC(C)(C)C)c1 (stereo not drawn)	inactive: 100%
COCCOC(=O)c1c(-c2ccccc2)c(-c2ccccc2)nn(C)c1=O	inactive: 84%
O=C(CSc1nc(-c2ccc(F)cc2)[nH]c1-c1ccc(F)cc1)Nc1ccc2c(c1)OCCO2	inactive: 78%
COc1ccc(Cc2nc3ccc(C(=O)NCc4ccccc4Cl)cc3o2)cc1	inactive: 65%
Cc1ccc(NC(=O)CS(=O)CC(=O)Nc2ccc3c(c2)CCC3)cc1 (stereo not drawn)	inactive: 107%
O=C1OC(C(=O)Nc2cc(C(F)(F)F)ccc2Cl)Cc2ccccc21 (stereo not drawn)	inactive: 78%
Nc1nonc1-n1nnc(CO)c1CO	inactive: 106%
Cc1ccc(C)c(N2CCN(C(=O)c3cnn(-c4ccccc4Cl)c3C3CCN(C(=O)OC(C)(C)C)CC3)CC2)c1	inactive: 77%
CCc1ccc(NC(=O)C(CC)n2c(=O)c(-c3ccccc3NC(C)=O)nc3ccccc32)cc1 (stereo not drawn)	inactive: 60%
C#CCSc1cccc2cccnc12	inactive: 97%
CCOc1ccc(CC(=O)NCC(c2cccs2)S(=O)(=O)c2ccc(F)c(C)c2)cc1 (stereo not drawn)	inactive: 80%
O=C(COc1ccc(Cl)cc1)Nc1ccccc1OCc1cc(=O)n2ccccc2n1	inactive: 68%
CCOC(=O)c1c(C)c(-c2ccccc2)n(CC(=O)NC(CC)Cc2ccccc2)c1C (stereo not drawn)	inactive: 122%
CCN(CC)c1ccc(NC(=O)C2CCN(S(=O)(=O)c3cnc[nH]3)CC2)c(C)c1	inactive: 83%
Cc1ccc(NC(=O)C2CC(=O)N(c3ccc(OC(C)C)cc3)C2)cc1 (stereo not drawn)	inactive: 89%
COc1ccccc1N1CCN(C(=O)c2cnn(-c3ccc(F)cc3F)c2C2CCNCC2)CC1	active: 0%
COc1cccc(C(=O)Nc2ccc3oc(-c4cccc5c(Br)cccc45)nc3c2)c1	inactive: 101%
CCc1ccccc1N(C)C(=O)c1ccc2c(=O)n3c(nc2c1)CCCCC3	inactive: 65%

SMILES	survival
COc1ccc(S(=O)(=O)NCC(c2ccc(N(C)C)cc2)N2CCc3ccccc32)cc1OC (stereo not drawn)	inactive: 87%
COc1ccc(N2CCN(C(=O)CCc3c(C)nc4cc(-c5ccc(OC)cc5OC)nn4c3C)CC2)cc1	inactive: 118%
CCOC(=O)c1c(NC(=O)c2ccccc2OCC)sc2c1CCC(CC)C2 (stereo not drawn)	active: -1%
Cc1cccc(OCC(=O)Nc2cccc3cccnc23)c1C	inactive: 76%
CCCOc1ccc(C2C(=O)N(C3CCCCCC3)CC(=O)N2CCC)cc1OC (stereo not drawn)	active: -6%
CN(C)S(=O)(=O)c1ccc(C(=O)NCCSc2c(-c3ccc(Cl)cc3)[nH]c3ccccc23)cc1	inactive: 74%
Cc1c(C(=O)OC2CCCCCC2)[nH]c2c1C(=O)CC(c1ccc(Cl)cc1)C2 (stereo not drawn)	inactive: 128%
Cc1ccc2c(c1)C(=O)OC(C(=O)Nc1ncc(Cc3ccc(Cl)cc3)s1)C2 (stereo not drawn)	inactive: 77%
COC(=O)C1=C(C)NC(C)=C(C(=O)OC)C1c1cc2ccc(OC)cc2[nH]c1=O	inactive: 114%
CCOc1ccc(NC(=O)NCc2cccn2Cc2ccccc2)cc1	inactive: 64%
O=C(c1ccc2c(c1)CCN2S(=O)(=O)c1ccc(Cl)cc1)N1CCN(c2ccc(F)cc2)CC1	inactive: 80%
Cc1cccc(C)c1-n1ncc(C(=O)NC2CCCC2)c1C1CCN(C(=O)OC(C)(C)C)CC1	inactive: 73%
O=C(CSc1ccccn1)N1CCc2ccccc21	inactive: 106%
O=C(COc1ccc(Cl)cc1Cl)Nc1cccc2cccnc12	inactive: 67%
N#CC1=C(N)c2ccccc2CC12CCCCC2	inactive: 126%
CC(C)(SC1CC(=O)N(c2ccccc2)C1=O)C(N)C(=O)O (stereo not drawn)	inactive: 80%
COc1ccc(OC)c(NC(=O)CSc2nnc(CNc3ccc(C)cc3C)n2CC2CCCO2)c1 (stereo not drawn)	inactive: 124%
CC(=O)N1CCC(N(Cc2ccco2)C(=O)Nc2ccc(C)c(Cl)c2)CC1	inactive: 121%
Cc1ccc2[nH]c3c(=O)n(CC(=O)N(CCN(C)C)Cc4ccccc4)ncc3c2c1	inactive: 99%
Cc1ccc2oc(-c3ccc(C)c(NC(=O)/C=C/c4ccc(Cl)cc4)c3)nc2c1	inactive: 79%
COc1ccc(Nc2c(-c3ccc(C)o3)nc3cc(C)ccn23)cc1	inactive: 69%
Cc1cc(C)cc(NC(=O)Cn2cc(C(=O)c3cccs3)c3ccccc32)c1	inactive: 81%

SMILES	survival
CCOC(=O)CNC(=O)N1[C@H](c2cccs2)[C@@H](C)C(=O)[C@@H](C)[C@@H]1c1cccs1	inactive: 81%
C/C(=N\NC(=O)CNc1ccccc1)c1ccccc1	inactive: 113%
Cc1ccc(CNC(=O)c2ccc(CN3CC(=O)N4CCCCC4C3=O)cc2)cc1 (stereo not drawn)	inactive: 75%
CCOc1ccc(N2CC(NC(=O)C3CCCCC3)CC2=O)cc1 (stereo not drawn)	inactive: 63%
COc1cc(NC(=O)c2nc3nc(C)cc(C(F)F)n3n2)c(OC)cc1Cl	inactive: 67%
CCc1nnc(NC(=O)c2nc(SCc3ccccc3F)ncc2Cl)s1	inactive: 66%
CCCCOc1ccc(Cn2c(=O)oc3ccc(C)cc32)cc1OC	inactive: 49%
COc1ccc2c(c1)c(=O)c(C(=O)c1ccc(F)cc1)cn2CC(=O)Nc1ccc2c(c1)OCO2	inactive: 91%
CCc1c(C)nc2nncn2c1NCc1ccccc1	inactive: 86%
COc1ccc(S(=O)(=O)N2CCN(c3cccc(C)c3C)CC2)c2ccccc12	inactive: 130%
O=S1(=O)c2ccccc2N(Cc2ccc(Cl)cc2)c2ccccc21	inactive: 129%
Cc1ccc(S(=O)(=O)N(CC(=O)NCCSc2ccc(Cl)cc2)c2ccccc2C)cc1	inactive: 82%
O=C(CCCCCn1c(=O)c2sccc2n(Cc2ccc(Cl)cc2)c1=O)NCc1ccc2c(c1)OCO2	inactive: 86%
Cc1ccc(NC(=O)C2CCN(c3nnc(C)c4c(C)n(-c5ccccc5)nc34)CC2)c(Cl)c1	inactive: 127%
CC(C)CCNC(=O)Cn1c(-c2cccs2)cc2cc(F)ccc21	inactive: 71%
Cc1cc(Br)ccc1NC(=O)c1sc2nc3n(c(=O)c2c1C)CCCC3	inactive: 81%
COc1ccc(Cl)cc1C(=O)Nc1nnc2n1CCS2	inactive: 83%
O=C(NCCc1ccc(Cl)cc1)c1ccc2c(c1)N(Cc1ccc(Cl)cc1)C(=O)CS2	inactive: 98%
C=Cc1ccc(Cn2c(=O)n(-c3cccc(Cl)c3)c(=O)c3c4c(sc32)CN(C(C)=O)CC4)cc1	inactive: 81%
CCN(Cc1ccccc1)Cc1c(O)ccc2oc(C)c(C(=O)Nc3ccc(C)cc3C)c12	inactive: 72%
COCCCNC(=O)CCn1c(=O)c2ccccc2n(CC(=O)Nc2cc(Cl)ccc2OC)c1=O	inactive: 83%
Cc1cccc(N2CCn3c2nc2c3c(=O)n(C/C=C/c3ccccc3)c(=O)n2C)c1	inactive: 84%

SMILES	survival
CCCCN(CC)c1nc(-c2ccccc2F)nc2ccccc12	inactive: 71%
O=C(Nc1ccccc1C(=O)N1CCOCC1)C1COc2ccccc2O1 (stereo not drawn)	inactive: 105%
S=C1NC2=C(CCCC2)C2(CCCCC2)N1	inactive: 90%
CN1C(C(=O)Nc2cccc(O)c2)=CC(c2ccco2)=NS1(=O)=O	inactive: 86%
Cc1cc(C)c(NC(=O)Cn2nnc(S(=O)(=O)c3ccc(C)c(C)c3)c2N)c(C)c1	inactive: 99%
CC(C)c1ccc(NC(=O)N2c3ccccc3Sc3ccccc32)cc1	active: 5%
COc1ccc(-c2cc(C(=O)N3CCN(c4ccccc4)CC3)no2)cc1	active: 16%
CCN(CC)S(=O)(=O)c1ccc2c(c1)c(=O)c(C(=O)N1CCN(c3cccc(Cl)c3)CC1)cn2C	inactive: 91%
CCOc1ccccc1CNC(=O)C1CCN(c2nc3ccccc3nc2C(F)(F)F)CC1	inactive: 73%
COc1ccc(-c2n[nH]c3c2cnc2cc(OC)c(OC)cc23)cc1	inactive: 88%
CCc1ccc(C(=O)c2cn(CC(=O)Nc3ccc4c(c3)OCO4)c3ccc(F)cc3c2=O)cc1	inactive: 85%
Cn1c(=O)oc2cc(S(=O)(=O)NC(Cc3ccccc3)C(=O)NCc3ccccc3Cl)ccc21 (stereo not drawn)	inactive: 144%
COc1cc(OC)c(NC(=O)c2ccc3c(c2)N(Cc2ccc(C)cc2)CCS3)cc1Cl	inactive: 89%
Cc1cccc(C2N=C(N)Nc3nc4ccccc4n32)c1 (stereo not drawn)	inactive: 125%
Cc1ccc(CSC2=Nc3ccccc3C3=NC(CC(=O)NCc4ccc5c(c4)OCO5)C(=O)N23)cc1 (stereo not drawn)	inactive: 74%
COc1cc2[nH]c(=O)c(C(=O)NCCN3CCCC3)c(O)c2cc1OC	inactive: 114%
Cc1ccc(-n2ncc(C(=O)NC3CCN(Cc4ccccc4)CC3)c2C2CCN(C(=O)OC(C)(C)C)CC2)cc1C	inactive: 73%
O=C(Nc1ccc2nc(SCC(=O)N3CCCc4ccccc43)sc2c1)c1ccc(Cl)cc1	inactive: 85%
CCCS(=O)(=O)Nc1cc(-c2cn3ccc(C)cc3n2)ccc1C	inactive: 97%
Cc1ccc(OCCn2cc(C=C(C#N)C#N)c3ccccc32)cc1	inactive: 105%
O=C(Cn1c2[n+](c3ccccc31)CC(O)CS2)N1CCCCC1 (stereo not drawn)	inactive: 102%
COc1ccc(-n2c(=O)c3ccccc3n(Cc3ccccc3Cl)c2=O)cc1	inactive: 117%
